The chains are these.
B1: PhoQ; a variant is named by its letters at X, in order, P23837 (parent)
chain: MKKLLRLFFPLSLRVRFLLATAAVVLVLSLAYGMVALIGYSVSFDKTTFRLLRGESNLFYTLAKWENNKLHVELPENIDKQSPTMTLIYDENGQLLWAQRDVPWLMKMIQPDWLKSNGFHEIEADVNDTSLLLSGDHSIQQQLQEVREDDDDAEMTHSVAVNVYPATSRMPKLTIVVVDTIPVELKSSYMVWSWFIYVLSANLLLVIPLLWVAAWWSLRPIEALAKEVRELEEHNRELLNPATTRELTSLVRNLNRLLKSERERYDKYRTTLTDLTHSLKTPLXXLQXXLRSLRSEKMSVSDAEPVMLEQISRISQQIGYYLHRASMRGGTLLSRELHPVAPLLDNLTSALNKVYQRKGVNISLDISPEISFVGEQNDFVEVMGNVLDNACKYCLEFVEISARQTDEHLYIVVEDDGPGIPLSKREVIFDRGQRVDTLRPGQGVGLAVAREITEQYEGKIVAGESMLGGARMEVIFGRQHSAPKDE

This is one part of the list.

In the assay the parent is B1. The experiment in a line: enrichment ratio after two sorts for PhoP signalling (ratio (wild type AVST 3.29)); higher = more functional. The settings on record: with PhoP (E. coli).
LYNT: the enrichment ratio was not above 0.25.
As to VADQ, the enrichment ratio is not above 0.25.
With MPFR the figure was not above 0.25; with YTNS, not above 0.25.
With THMQ the figure was 9.12; with GYFV, not above 0.25; with NCPS, not above 0.25.
The value for ICVR was not above 0.25; that for RYQA was not above 0.25.
Regarding DQGL, the enrichment ratio was not above 0.25.
With MNVR the figure was not above 0.25; with ETHT, not above 0.25.
Regarding TTLY, the enrichment ratio was determined as 3.21.
With GMFW the figure was not above 0.25.
For RGFF, the enrichment ratio was not above 0.25.
The value for EYDD was not above 0.25; that for RQVD was not above 0.25.
The value for IKMV was not above 0.25.
For FFSE, the enrichment ratio was not above 0.25.
The value for MCYA was not above 0.25; that for MRYQ was not above 0.25.
On to GLSA, for which the enrichment ratio is not above 0.25.
On to PVNV, for which the enrichment ratio was not above 0.25.
On to GAMS, for which the enrichment ratio is not above 0.25.
With ATGE the figure was 4.75; with EYFQ, not above 0.25.
With LFLH, the enrichment ratio was not above 0.25.
With ATMY the figure was 7.37.
With TCFP the figure was not above 0.25; with FDPA, not above 0.25.
With YTDQ the figure was not above 0.25; with NWLD, not above 0.25.
Turning to DADF, the enrichment ratio was not above 0.25.
For LWGH, the enrichment ratio is not above 0.25.
The value for EYGG was not above 0.25; that for PWCE was not above 0.25.
Regarding QFFA, the enrichment ratio is not above 0.25.
RCAQ: the enrichment ratio was not above 0.25.
The value for LAYE was not above 0.25; that for ACIG was 12.3.
With VYTL the figure was not above 0.25; with NCML, not above 0.25; with VAYC, not above 0.25.
RQII: the enrichment ratio was not above 0.25.
For the variant FFMQ, the enrichment ratio was not above 0.25.
The value for SLYR was not above 0.25; that for YCQK was not above 0.25; that for QATY was not above 0.25.
Turning to DHIN, the enrichment ratio was not above 0.25.
The value for YFGT was not above 0.25; that for GLEC was not above 0.25.
The value for VHDK was not above 0.25; that for MQST was not above 0.25.
With MIQV the figure was not above 0.25; with WQVH, not above 0.25; with ISRH, 0.443.
As to GFVE, the enrichment ratio is not above 0.25.
For MPMP, the enrichment ratio is not above 0.25.
With WYGI the figure was not above 0.25.
With WYFW, the enrichment ratio is not above 0.25.
With MDGK the figure was not above 0.25; with FKRQ, not above 0.25.
With GGFV the figure was not above 0.25; with DDMH, not above 0.25.
Regarding LIML, the enrichment ratio is not above 0.25.
With KGFQ the figure was not above 0.25; with KIIS, not above 0.25.
VGRT: the enrichment ratio was not above 0.25.
The value for HRWL was not above 0.25; that for ISTW was not above 0.25.
Consider WVHI, for which the enrichment ratio was not above 0.25.
For the variant GDSH, the enrichment ratio was not above 0.25.
With QDVM the figure was not above 0.25; with AHLA, 1.43; with WFRK, not above 0.25.
For EYFS, the enrichment ratio is not above 0.25.
On to PFDA, for which the enrichment ratio is not above 0.25.
As for FPTS, the enrichment ratio is not above 0.25.
With SIRW the figure was not above 0.25.
The value for EPMH was not above 0.25.
Take SCEI: the enrichment ratio was not above 0.25.
The value for MFSF was not above 0.25.
The value for VSCM was 13.1; that for SQYC was not above 0.25; that for ATAH was 4.05.
The value for MTLY was not above 0.25; that for RCGA was not above 0.25.
For the variant YITA, the enrichment ratio is not above 0.25.
In the case of NGEH, the enrichment ratio was not above 0.25.
The value for ILVC was not above 0.25; that for GTEP was not above 0.25; that for PQQM was not above 0.25.
On to NTVD, for which the enrichment ratio is not above 0.25.
WPME: the enrichment ratio was not above 0.25.
WSKQ: the enrichment ratio was not above 0.25.
The value for MTCP was not above 0.25; that for VTVI was not above 0.25; that for TARR was 0.314.
With GESW the figure was not above 0.25; with GRHS, not above 0.25; with TYEL, not above 0.25.
With TPRE the figure was not above 0.25.
In the case of LAFH, the enrichment ratio was determined as 0.766.
For YKSC, the enrichment ratio was not above 0.25.
As to DSDM, the enrichment ratio is not above 0.25.
With PQMG the figure was not above 0.25.
The value for AFKS was not above 0.25.
On to QHVK, for which the enrichment ratio is not above 0.25.
Regarding IPQL, the enrichment ratio was not above 0.25.
With NKEM the figure was not above 0.25.
Take IRVW: the enrichment ratio was not above 0.25.
Take VGKH: the enrichment ratio was not above 0.25.
For GQSD, the enrichment ratio is not above 0.25.
The value for IRHQ was not above 0.25; that for WFAF was not above 0.25; that for VAAN was not above 0.25.
With RSMD the figure was not above 0.25; with FWGR, not above 0.25; with PCQM, not above 0.25.
For the variant WFDL, the enrichment ratio was not above 0.25.
The value for SKQV was not above 0.25; that for GSKE was not above 0.25.
The value for VARC was not above 0.25; that for RASK was not above 0.25.
Consider LDFC, for which the enrichment ratio is not above 0.25.
Turning to DHQP, the enrichment ratio is not above 0.25.
For the variant GWCG, the enrichment ratio is not above 0.25.
As for IMHD, the enrichment ratio is not above 0.25.
Consider MCRP, for which the enrichment ratio is not above 0.25.
The value for KDLD was not above 0.25.
The value for LWSV was not above 0.25.
As for PVKK, the enrichment ratio is not above 0.25.
The value for MPIQ was not above 0.25.
VQLL: the enrichment ratio is 3.45.
With YPKT the figure was not above 0.25; with NHQG, not above 0.25.
As for ACRE, the enrichment ratio is not above 0.25.
In the case of EHYV, the enrichment ratio was not above 0.25.
For ELSG, the enrichment ratio is not above 0.25.
The value for PDMY was not above 0.25; that for DNML was not above 0.25.
Turning to VAPT, the enrichment ratio is not above 0.25.
With RWGC the figure was not above 0.25; with DIFL, not above 0.25; with EDDT, not above 0.25.
With VVYP the figure was not above 0.25; with NFQT, not above 0.25; with KSDN, not above 0.25.
As for FGIE, the enrichment ratio is not above 0.25.
The value for AGFL was 5.03.
As for FEPD, the enrichment ratio is not above 0.25.
For the variant QEWT, the enrichment ratio stood at 11.3.
The value for HDRY was not above 0.25; that for DKVY was not above 0.25.
Turning to TNKM, the enrichment ratio was not above 0.25.
With YGAL the figure was not above 0.25.
Turning to LSMG, the enrichment ratio was not above 0.25.
For the variant MYEK, the enrichment ratio is not above 0.25.
With FCLQ the figure was 6.86; with GSYR, not above 0.25.
For IPLE, the enrichment ratio was not above 0.25.
As to VECC, the enrichment ratio turned out to be 0.344.
On to SCRN, for which the enrichment ratio was not above 0.25.
The value for HEFQ was not above 0.25; that for MAGH was 8.79; that for SYGT was not above 0.25.
Consider PQWA, for which the enrichment ratio is not above 0.25.
Regarding ELAT, the enrichment ratio is not above 0.25.
HHRG: the enrichment ratio was not above 0.25.
Turning to QNKP, the enrichment ratio is not above 0.25.
Turning to ITWT, the enrichment ratio was not above 0.25.
As to LPPD, the enrichment ratio was not above 0.25.
The value for PCWY was not above 0.25.
Turning to DCRC, the enrichment ratio is not above 0.25.
RGEI: the enrichment ratio is not above 0.25.
HTIF: the enrichment ratio is not above 0.25.
The value for YYIC was not above 0.25; that for ATKT was not above 0.25.
With REWD the figure was not above 0.25; with YYGV, not above 0.25; with NRMF, not above 0.25.
For the variant QTLH, the enrichment ratio was not above 0.25.
With TGCY the figure was 8.48; with NWWN, not above 0.25.
For the variant KIHM, the enrichment ratio is not above 0.25.
As for MKFK, the enrichment ratio was not above 0.25.
Consider EWHS, for which the enrichment ratio was not above 0.25.
For RTAK, the enrichment ratio was not above 0.25.
With YYAS, the enrichment ratio was not above 0.25.
NASG: the enrichment ratio was not above 0.25.
On to HPWR, for which the enrichment ratio is not above 0.25.
The value for VLRR was not above 0.25.
For the variant YRPS, the enrichment ratio was not above 0.25.
The value for ASKY was not above 0.25; that for RNHI was not above 0.25.

For the origin of these results see a collection of fitness landscapes (doi:10.1126/science.1257360).
